# According to the supplement of paper PMC10126150:
# Values marked as one replicate rest on one cluster of the flow cell; about a third of the high ones do not repeat.
# Test system: ATP
# Experiment: switch fluorescence ratio, 500 uM ATP over buffer (Cy3 cluster intensity, sum of 5 cycles each) (fold (ratio)); higher = stronger signal-on switching upon ATP binding; sequences stand for … in TCGTCGGCAGCGTCAGATGTGTATAAGAGACAGTTTTTTTTTTTTTTTTTTTTTTTTT…TC
# Details: aptamer strand: ATP DNA aptamer (quencher-CACCTGGGGGAGTATTGCGGAGGAAGG + anchor), 100 nM annealed; ATP concentration: 500 uM; one replicate
# Outline: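 Between each of five buffer/ATP cycles, the flow-cell was stripped with NaOH and re-annealed. Each cycle imaged Cy3-labelled switching-strand clusters, annealed to 100 nM quencher-labelled ATP aptamer on a modified Illumina MiSeq flow-cell, first in selection buffer and then after 15 min with 500 uM ATP at 22 °C. The fluorescence ratio is summed target-cycle over summed buffer-cycle Cy3 intensity per cluster, averaged per switch-domain sequence, with clusters outside 100-1000 RFU excluded.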
# 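Also: ATP exposure 15 min at 22 °C before imaging.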
sequence,measurement,value
ACACAATGGT,switch fluorescence ratio,1.01
ACTCGACCTA,switch fluorescence ratio,1.23
TTAGCCTTAG,switch fluorescence ratio,1.07
TAATGGAACT,switch fluorescence ratio,1.02
CAAGGATCCT,switch fluorescence ratio,1.02
GAGTAACAAC,switch fluorescence ratio,1.05
TGTGGATGAC,switch fluorescence ratio,1.02
CGCATGAACG,switch fluorescence ratio,1.04
AATACTTTAA,switch fluorescence ratio,1.05
CAACTTGGTA,switch fluorescence ratio,0.981
AGCATTTGTG,switch fluorescence ratio,1
CCCCCAAGA,switch fluorescence ratio,1.79
CGGGACGGGT,switch fluorescence ratio,1.04
ACGGGTTATA,switch fluorescence ratio,1.01
GGTGGGCCGA,switch fluorescence ratio,0.997
AAAAATCGTA,switch fluorescence ratio,0.985
CGGGGCCCTT,switch fluorescence ratio,0.966
TGATAGAACC,switch fluorescence ratio,1.04
TGCGATCCAT,switch fluorescence ratio,1.04
CAGTGCTGGT,switch fluorescence ratio,1
GGCGTATGCA,switch fluorescence ratio,1.04
ACACTCCTAG,switch fluorescence ratio,1.01
GCAAGTTGGA,switch fluorescence ratio,1.05
TCGTAGGCAA,switch fluorescence ratio,1.49
ACTGAACGTC,switch fluorescence ratio,1.26
CATTGGACC,switch fluorescence ratio,1.12
AAGCAGCACG,switch fluorescence ratio,0.996
TACAGTGGAA,switch fluorescence ratio,1.04
TCAAGTTTCC,switch fluorescence ratio,1.05
AACGACGTAT,switch fluorescence ratio,1.01
CAATGATGGC,switch fluorescence ratio,0.985
CATCGTACAA,switch fluorescence ratio,1.16
AACTGCCTGG,switch fluorescence ratio,1.01
CAGTCATCGG,switch fluorescence ratio,1
TGGGGGAAG,switch fluorescence ratio,0.957
CCACCACATA,switch fluorescence ratio,1.78
CCTATTGAGG,switch fluorescence ratio,1.09
CACGCCCTAG,switch fluorescence ratio,1.11
ACATAGTTAT,switch fluorescence ratio,1.01
CGAAACAGAA,switch fluorescence ratio,0.999
CCGGCTTCTG,switch fluorescence ratio,0.988
TTTCTTCGGA,switch fluorescence ratio,1.07
TTGAAGGGAG,switch fluorescence ratio,0.989
TTACTCCGTT,switch fluorescence ratio,2.04
TCTTACACAT,switch fluorescence ratio,1.02
CGACATGTTG,switch fluorescence ratio,1.04
GAGGGCTGGC,switch fluorescence ratio,1.06
TCGGCACATA,switch fluorescence ratio,1.21
GGTAGTCGG,switch fluorescence ratio,1.01
AAGCACCTCG,switch fluorescence ratio,1.16
CCTAGTAAGT,switch fluorescence ratio,1.05
TGTAATGTGG,switch fluorescence ratio,0.959
AACGGTACTA,switch fluorescence ratio,1.36
GTGCGATGGT,switch fluorescence ratio,1.05
AGCAGGGGAT,switch fluorescence ratio,1.87
CTCATCCTGT,switch fluorescence ratio,1.05
GGATCATTTT,switch fluorescence ratio,0.991
GGGCGTGGGC,switch fluorescence ratio,0.992
TTCCCAAATA,switch fluorescence ratio,1.04
CTGGGGAAG,switch fluorescence ratio,0.994
AGTAAGATC,switch fluorescence ratio,1.01
TCTGGTTTCT,switch fluorescence ratio,1.01
CGTCTGACCC,switch fluorescence ratio,1.01
GTATAAGCAC,switch fluorescence ratio,1.21
TTTTGATTGG,switch fluorescence ratio,1.05
GACTATAGAA,switch fluorescence ratio,1.06
TTTTTCTCTA,switch fluorescence ratio,1.01
CTAGTACCGC,switch fluorescence ratio,1.05
TCACCGGTAA,switch fluorescence ratio,1.15
ACTGAATTTT,switch fluorescence ratio,1.02
TTTTCCGAGC,switch fluorescence ratio,1.22
TCTGGGGTAT,switch fluorescence ratio,1.05
ACCACAATGG,switch fluorescence ratio,1.11
CACTTAGCAT,switch fluorescence ratio,1.14
CCTTGAGTTC,switch fluorescence ratio,1.02
ATGAATTGA,switch fluorescence ratio,0.952
GTCGATCG,switch fluorescence ratio,0.978
AGATATTCGA,switch fluorescence ratio,1.04
TGAAGTTTC,switch fluorescence ratio,1.23
TTACGTGGTC,switch fluorescence ratio,0.988
TAACAGTTCT,switch fluorescence ratio,0.971
GATTGTGTAG,switch fluorescence ratio,1.02
CATGAGCTCG,switch fluorescence ratio,1.04
TTAATCAACC,switch fluorescence ratio,1.35
GTTAAATGCG,switch fluorescence ratio,0.971
TAGGAGGGAT,switch fluorescence ratio,0.975
TAGTAGCTTG,switch fluorescence ratio,0.976
CGGTGACCCG,switch fluorescence ratio,1.7
AATCGTGTTA,switch fluorescence ratio,0.95
TTGGTAGTGA,switch fluorescence ratio,1.01
CGTTTTCTAT,switch fluorescence ratio,0.97
CCTCGGGTCT,switch fluorescence ratio,1.17
AAACAGGGG,switch fluorescence ratio,1.19
TTGAGATAAA,switch fluorescence ratio,1.07
TTGTGCTGAA,switch fluorescence ratio,0.988
TGAAACTCTC,switch fluorescence ratio,1.04
AGAGTAAGCT,switch fluorescence ratio,1
GTGAGGATGT,switch fluorescence ratio,1.06
TGGTGCTGCG,switch fluorescence ratio,0.869
TCACGTACT,switch fluorescence ratio,1.79
GTTAACTCGA,switch fluorescence ratio,1.01
TCAAGGCCC,switch fluorescence ratio,1.02
CGAAATACCC,switch fluorescence ratio,2.75
AGGGTGAAGA,switch fluorescence ratio,0.973
TTAAGCAGTG,switch fluorescence ratio,1.04
GGATTCTAA,switch fluorescence ratio,0.967
TTCACGTTCC,switch fluorescence ratio,2.32
TGGGCGACGA,switch fluorescence ratio,1.05
GGAGTGTATC,switch fluorescence ratio,1.03
ATTGTGTTCG,switch fluorescence ratio,0.971
AGCGGAAACT,switch fluorescence ratio,1.01
CGGGTAGACA,switch fluorescence ratio,0.944
AAGCCTCATG,switch fluorescence ratio,1.02
CTAAGTCGGA,switch fluorescence ratio,0.975
GTGTTGAGTC,switch fluorescence ratio,0.972
ATGGCCACCG,switch fluorescence ratio,0.999
CGTCCTCTAA,switch fluorescence ratio,1.3
TAGGGACATA,switch fluorescence ratio,1.01
CATTGCCTGG,switch fluorescence ratio,1.09
GCCTGAATTG,switch fluorescence ratio,0.996
ATTTAATTT,switch fluorescence ratio,1.03
ACCACTGGGA,switch fluorescence ratio,1.04
TTATAGTAAC,switch fluorescence ratio,1.02
GGTCTATGCG,switch fluorescence ratio,0.981
CTACGTTAGC,switch fluorescence ratio,1.38
GGGGCGTACT,switch fluorescence ratio,1.01
ATCGCCCTG,switch fluorescence ratio,1
TTCTCCTGTT,switch fluorescence ratio,1.01
CTCCTTTTTG,switch fluorescence ratio,1
GCCACGGCTT,switch fluorescence ratio,0.982
ACAATGCAGG,switch fluorescence ratio,1.05
AATTCCTGGC,switch fluorescence ratio,0.974
CTGCAACATA,switch fluorescence ratio,1.29
CTAACGAGGC,switch fluorescence ratio,1.22
AATGTTTGCG,switch fluorescence ratio,1.06
ACGCCTGCTG,switch fluorescence ratio,1.02
GCACATGGAT,switch fluorescence ratio,0.983
CCGCATTAAA,switch fluorescence ratio,5.3
ACTTTAGCTC,switch fluorescence ratio,1.15
TTGATGGAAT,switch fluorescence ratio,1.24
GACAAACCAG,switch fluorescence ratio,1.09
ACGGCTGAGT,switch fluorescence ratio,1.03
TATTAGGATA,switch fluorescence ratio,0.978
ACTGGGGTGC,switch fluorescence ratio,1.06
GGTCACACAT,switch fluorescence ratio,0.991
GGGCGCGTAG,switch fluorescence ratio,1.03
TCATAGTATC,switch fluorescence ratio,0.976
ATCACGCGCG,switch fluorescence ratio,1.03
CCTGTACAGA,switch fluorescence ratio,0.979
TCCAGCCGCA,switch fluorescence ratio,1.15
CGATTCCTT,switch fluorescence ratio,1.06
CGGTTGAAGT,switch fluorescence ratio,1.01
TGGTTTCTGG,switch fluorescence ratio,1
GGGGTGAAGA,switch fluorescence ratio,1.08
TTCCGGCCCC,switch fluorescence ratio,1.46
TCTTTGGGCG,switch fluorescence ratio,1
GAATGCGCTT,switch fluorescence ratio,1.01
